{"source": "the supplement of paper PMC8728848", "assay_in_all_cases": "glycan array binding signal (z-score within array); higher = stronger binding", "conditions_in_all_cases": "glycan notation: IUPAC condensed, linker removed", "key": {"[1]": {"target": "Neu5Ac(a2-6)Gal(b1-4)GlcNAc(b1-2)Man(a1-3)[Man(a1-6)]Man(b1-4)GlcNAc(b1-4)GlcNAc", "method_in_brief": "(§1)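 The Consortium for Functional Glycomics database supplied 3228 glycan arrays, of which those lacking an available protein sequence were dropped. The binding signal, a within-array Z-score, was averaged across arrays of the same protein sequence and across linkers. Negative scores can be read as non-binding.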"}, "[2]": {"target": "Neu5Ac(a2-6)Gal(b1-4)GlcNAc(b1-2)Man(a1-3)[Neu5Ac(a2-6)Gal(b1-4)GlcNAc(b1-2)Man(a1-6)]Man(b1-4)GlcNAc(b1-4)GlcNAc", "method_in_brief": "as §1"}, "[3]": {"target": "Neu5Ac(a2-6)Gal(b1-4)GlcNAc(b1-2)Man(a1-3)[Neu5Ac(a2-6)Gal(b1-4)GlcNAc(b1-2)Man(a1-6)]Man(b1-4)GlcNAc(b1-4)[Fuc(a1-6)]GlcNAc", "method_in_brief": "as §1"}, "[4]": {"target": "Neu5Ac(a2-6)Gal(b1-4)GlcNAc(b1-2)Man(a1-6)Man(b1-4)GlcNAc(b1-4)GlcNAc", "method_in_brief": "as §1"}, "[5]": {"target": "Neu5Ac(a2-6)Gal(b1-4)GlcNAc(b1-2)Man(a1-6)[Gal(b1-4)GlcNAc(b1-2)Man(a1-3)]Man(b1-4)GlcNAc(b1-4)GlcNAc", "method_in_brief": "as §1"}, "[6]": {"target": "Neu5Ac(a2-6)Gal(b1-4)GlcNAc(b1-2)Man(a1-6)[GlcNAc(b1-2)Man(a1-3)]Man(b1-4)GlcNAc(b1-4)GlcNAc", "method_in_brief": "as §1"}, "[7]": {"target": "Neu5Ac(a2-6)Gal(b1-4)GlcNAc(b1-2)Man(a1-6)[Man(a1-3)]Man(b1-4)GlcNAc(b1-4)GlcNAc", "method_in_brief": "as §1"}, "[8]": {"target": "Neu5Ac(a2-6)Gal(b1-4)GlcNAc(b1-3)Gal(b1-3)GlcNAc", "method_in_brief": "as §1"}, "[9]": {"target": "Neu5Ac(a2-6)Gal(b1-4)GlcNAc(b1-3)Gal(b1-4)GlcNAc", "method_in_brief": "as §1"}, "[10]": {"target": "Neu5Ac(a2-6)Gal(b1-4)GlcNAc(b1-3)Gal(b1-4)GlcNAc(b1-3)Gal(b1-4)GlcNAc", "method_in_brief": "as §1"}, "[11]": {"target": "Neu5Ac(a2-6)Gal(b1-4)GlcNAc(b1-3)Gal(b1-4)[Fuc(a1-3)]GlcNAc(b1-3)Gal(b1-4)[Fuc(a1-3)]GlcNAc", "method_in_brief": "as §1"}, "[12]": {"target": "Neu5Ac(a2-6)Gal(b1-4)GlcNAc(b1-3)GalNAc", "method_in_brief": "as §1"}, "[13]": {"target": "Neu5Ac(a2-6)Gal(b1-4)GlcNAc(b1-3)[Neu5Ac(a2-6)Gal(b1-4)GlcNAc(b1-6)]GalNAc", "method_in_brief": "as §1"}, "[14]": {"target": "Neu5Ac(a2-6)Gal(b1-4)GlcNAc(b1-6)GalNAc", "method_in_brief": "as §1"}, "[15]": {"target": "Neu5Ac(a2-6)Gal(b1-4)GlcNAc(b1-6)[Gal(b1-3)GlcNAc(b1-3)]Gal(b1-4)Glc", "method_in_brief": "as §1"}, "[16]": {"target": "Neu5Ac(a2-6)Gal(b1-4)GlcNAc6S", "method_in_brief": "as §1"}, "Neu5Ac(a2-6)GalNAc": {"target": "Neu5Ac(a2-6)GalNAc", "method_in_brief": "as §1"}, "[17]": {"target": "Neu5Ac(a2-6)GalNAc(b1-4)GlcNAc", "method_in_brief": "as §1"}, "[18]": {"target": "Neu5Ac(a2-6)GalNAc(b1-4)GlcNAc6S", "method_in_brief": "as §1"}, "[19]": {"target": "Neu5Ac(a2-6)GlcNAc(b1-4)GlcNAc", "method_in_brief": "as §1"}, "[20]": {"target": "Neu5Ac(a2-6)GlcNAc(b1-4)GlcNAc(b1-4)GlcNAc", "method_in_brief": "as §1"}, "Neu5Ac(a2-8)Neu5Ac": {"target": "Neu5Ac(a2-8)Neu5Ac", "method_in_brief": "as §1"}, "[21]": {"target": "Neu5Ac(a2-8)Neu5Ac(a2-3)Gal(b1-3)GalNAc(b1-4)[Neu5Ac(a2-8)Neu5Ac(a2-3)]Gal(b1-4)Glc", "method_in_brief": "as §1"}, "[22]": {"target": "Neu5Ac(a2-8)Neu5Ac(a2-3)Gal(b1-4)Glc", "method_in_brief": "as §1"}, "[23]": {"target": "Neu5Ac(a2-8)Neu5Ac(a2-3)[Gal(b1-3)GalNAc(b1-4)]Gal(b1-4)Glc", "method_in_brief": "as §1"}, "[24]": {"target": "Neu5Ac(a2-8)Neu5Ac(a2-3)[GalNAc(b1-4)]Gal(b1-4)Glc", "method_in_brief": "as §1"}, "[25]": {"target": "Neu5Ac(a2-8)Neu5Ac(a2-8)Neu5Ac", "method_in_brief": "as §1"}, "[26]": {"target": "Neu5Ac(a2-8)Neu5Ac(a2-8)Neu5Ac(a2-3)Gal(b1-4)Glc", "method_in_brief": "as §1"}, "[27]": {"target": "Neu5Ac(a2-8)Neu5Ac(a2-8)Neu5Ac(a2-3)[GalNAc(b1-4)]Gal(b1-4)Glc", "method_in_brief": "as §1"}, "[28]": {"target": "Neu5Ac(a2-8)Neu5Ac(a2-8)Neu5Ac(a2-8)Neu5Ac(a2-3)[GalNAc(b1-4)]Gal(b1-4)Glc", "method_in_brief": "as §1"}, "[29]": {"target": "Neu5Ac(b2-6)Gal(b1-4)GlcNAc", "method_in_brief": "as §1"}, "Neu5Ac(b2-6)GalNAc": {"target": "Neu5Ac(b2-6)GalNAc", "method_in_brief": "as §1"}, "[30]": {"target": "Neu5Ac9Ac(a2-3)Gal(b1-3)GlcNAc", "method_in_brief": "as §1"}, "[31]": {"target": "Neu5Ac9Ac(a2-3)Gal(b1-4)GlcNAc", "method_in_brief": "as §1"}, "[32]": {"target": "Neu5Ac9Ac(a2-6)Gal(b1-4)GlcNAc", "method_in_brief": "as §1"}, "[33]": {"target": "Neu5Gc(a2-3)Gal(b1-3)GlcNAc", "method_in_brief": "as §1"}, "[34]": {"target": "Neu5Gc(a2-3)Gal(b1-3)[Fuc(a1-4)]GlcNAc", "method_in_brief": "as §1"}, "Neu5Gc(a2-3)Gal(b1-4)Glc": {"target": "Neu5Gc(a2-3)Gal(b1-4)Glc", "method_in_brief": "as §1"}, "[35]": {"target": "Neu5Gc(a2-3)Gal(b1-4)GlcNAc", "method_in_brief": "as §1"}, "[36]": {"target": "Neu5Gc(a2-3)Gal(b1-4)[Fuc(a1-3)]GlcNAc", "method_in_brief": "as §1"}, "[37]": {"target": "Neu5Gc(a2-6)Gal(b1-4)GlcNAc", "method_in_brief": "as §1"}, "Neu5Gc(a2-6)GalNAc": {"target": "Neu5Gc(a2-6)GalNAc", "method_in_brief": "as §1"}, "[38]": {"target": "Neu5Gc(b2-6)Gal(b1-4)GlcNAc", "method_in_brief": "as §1"}}, "note": "The list shows a part of the results.", "data": [{"binder": "SalT (Orysata sativa) (protein) MTLVKIGLWGGNGGSAQDISVPPKKLLGVTIYSSDAIRSIAFNYIGVDGQEYAIGPWGGGEGTSTEIKLGSSEHIKEISGTHGPVYDLADIVTYLKIVTSANNTYEAGVPNGKEFSIPLQDSGHVVGFFGRSGTLIDAIGIYVHPILEQKLISEEDLNSAVDHHHHHH", "values": [{"measurement": "glycan array binding signal (z-score)", "setting": "[1]", "value": 2.99}, {"measurement": "glycan array binding signal (z-score)", "setting": "[2]", "value": 2.81}, {"measurement": "glycan array binding signal (z-score)", "setting": "[3]", "value": 0.435}, {"measurement": "glycan array binding signal (z-score)", "setting": "[4]", "value": -0.309}, {"measurement": "glycan array binding signal (z-score)", "setting": "[5]", "value": 2.52}, {"measurement": "glycan array binding signal (z-score)", "setting": "[6]", "value": 3.37}, {"measurement": "glycan array binding signal (z-score)", "setting": "[7]", "value": 4.96}, {"measurement": "glycan array binding signal (z-score)", "setting": "[8]", "value": -0.304}, {"measurement": "glycan array binding signal (z-score)", "setting": "[9]", "value": -0.306}, {"measurement": "glycan array binding signal (z-score)", "setting": "[10]", "value": -0.304}, {"measurement": "glycan array binding signal (z-score)", "setting": "[11]", "value": -0.305}, {"measurement": "glycan array binding signal (z-score)", "setting": "[12]", "value": -0.296}, {"measurement": "glycan array binding signal (z-score)", "setting": "[13]", "value": -0.307}, {"measurement": "glycan array binding signal (z-score)", "setting": "[14]", "value": -0.306}, {"measurement": "glycan array binding signal (z-score)", "setting": "[15]", "value": -0.309}, {"measurement": "glycan array binding signal (z-score)", "setting": "[16]", "value": -0.31}, {"measurement": "glycan array binding signal (z-score)", "setting": "Neu5Ac(a2-6)GalNAc", "value": -0.307}, {"measurement": "glycan array binding signal (z-score)", "setting": "[17]", "value": -0.309}, {"measurement": "glycan array binding signal (z-score)", "setting": "[18]", "value": -0.303}, {"measurement": "glycan array binding signal (z-score)", "setting": "[19]", "value": -0.308}, {"measurement": "glycan array binding signal (z-score)", "setting": "[20]", "value": -0.304}, {"measurement": "glycan array binding signal (z-score)", "setting": "Neu5Ac(a2-8)Neu5Ac", "value": -0.308}, {"measurement": "glycan array binding signal (z-score)", "setting": "[21]", "value": -0.306}, {"measurement": "glycan array binding signal (z-score)", "setting": "[22]", "value": -0.31}, {"measurement": "glycan array binding signal (z-score)", "setting": "[23]", "value": -0.298}, {"measurement": "glycan array binding signal (z-score)", "setting": "[24]", "value": -0.305}, {"measurement": "glycan array binding signal (z-score)", "setting": "[25]", "value": -0.307}, {"measurement": "glycan array binding signal (z-score)", "setting": "[26]", "value": -0.307}, {"measurement": "glycan array binding signal (z-score)", "setting": "[27]", "value": -0.307}, {"measurement": "glycan array binding signal (z-score)", "setting": "[28]", "value": -0.309}, {"measurement": "glycan array binding signal (z-score)", "setting": "[29]", "value": -0.303}, {"measurement": "glycan array binding signal (z-score)", "setting": "Neu5Ac(b2-6)GalNAc", "value": -0.31}, {"measurement": "glycan array binding signal (z-score)", "setting": "[30]", "value": -0.312}, {"measurement": "glycan array binding signal (z-score)", "setting": "[31]", "value": -0.309}, {"measurement": "glycan array binding signal (z-score)", "setting": "[32]", "value": -0.308}, {"measurement": "glycan array binding signal (z-score)", "setting": "[33]", "value": -0.305}, {"measurement": "glycan array binding signal (z-score)", "setting": "[34]", "value": -0.309}, {"measurement": "glycan array binding signal (z-score)", "setting": "Neu5Gc(a2-3)Gal(b1-4)Glc", "value": -0.305}, {"measurement": "glycan array binding signal (z-score)", "setting": "[35]", "value": -0.312}, {"measurement": "glycan array binding signal (z-score)", "setting": "[36]", "value": -0.307}, {"measurement": "glycan array binding signal (z-score)", "setting": "[37]", "value": -0.308}, {"measurement": "glycan array binding signal (z-score)", "setting": "Neu5Gc(a2-6)GalNAc", "value": -0.309}, {"measurement": "glycan array binding signal (z-score)", "setting": "[38]", "value": -0.308}]}]}
